Consider 41 variants from the RNAGym collection of RNA variant scans (doi:10.7554/elife.90254).

The source gives no read counts; variants with many changes may rest on few reads.

B1: OR4K15 (parent)
chain: GUUAACGGUCAUAGGCCAUGGAAACUAGGAGCACCAUUUCGCUGCCAGUGAAGAAAUGAACAAAGAAAAUCUGGGCCAGGCAGGCAUCAAAAGAAAUAGUCUUGCGCUCAACCAGAAAGUCUGUAAUCAUUUUAAGGGUA

The variants in this data set derive from B1. Description: self-cleavage, relative activity (ratio to wild type); higher = more cleavage; in vitro, sequencing; the parent is a self-cleaving ribozyme.
Regarding GUUAACGGUCAUAGGCCAUGGAAACUAGGAGCACCAUUUCGCUGCCAGUGAAGAAAUGAACAAAGAGAACCUGGGCCAGGCAGGCAUCAAAAGAAAUAGUCUUGCGCUCAACCAGAAAGUCUGUAAUCAUUUUAACGGUA [A67G U70C G136C], the self-cleavage worked out at 0.83.
The figure for GUUAACGGUCAUAGGCCAUGGAAACUAGGAGCACCAUUUCGCUGCCAGUGAAGAAAUGAACAAAGAUAAUCUGGGCCUGGCAGGCAUCAGGAGAAAUAGUCUUGCGCUCAACCAGAAAGUCUGUAAUCAUUUUAAGGGUA [A67U A78U A90G A91G] is 0.23.
The figure for GUUAACGGUCAUAGGCCAUGGAAACUAGGAGCACCAUUUCGCUGCCAGUGAAGAAAUGAACAAAGAAGAUCUGGGCCAGGCAGGCGUCAAAAGAGGUAGUCUUGCGCUCAACCAGAAAGUCUGUAAUCAUUUUAAGGGUA [A68G A86G A95G A96G] is 0.95; for GUUAACGGUCAUAGGCCAUGGAAACUAGGAGCACCAUUUCGCUGCCAGUGAAGAAAUGAACAAAGAUAAUCUGGGCCAGGCAGGCAUCAAGAGAAAUAGUCUUGCGCUCAACCAGAAAGUCUGUAAUCAUUUUGAGGGUA [A67U A91G A134G] it is 1.23; for GUUAACGGUCAUAGGCCAUGGAAACUAGGAGCACCAUUUCGCUGCCAGUGAAGAAAUGAACAAAGAUGAUCUGGGCCAGGCAGGCAUCAAAAGAAACAGUCUUGCGCUCGACCAGAAAGUCUGUAAUCAUUUUAAGGGUA [A67U A68G U97C A110G] it is 0.2.
GUUAACGGUCAUAGGCCAUGGAAACUAGGAGCACCAUUUCGCUGCCAGUGAAGAAAUGAACAAAGAGAAUCUGUGCCAGGCAGGCAUCAAAAGAAAUAGUCUUGCGCUCAGCCAGAAAGUCUGUAAUCAUUUUAAGGGUA [A67G G74U A111G]: the self-cleavage stood at 0.02.
As to GUUAACGGUCAUAGGCCAUGGAAACUAGGAGCACCAUUUCGCUGCCAGUGAAGAAAUGAACAAAGAAGAUCUGGGCCAGGCGGGCAUCAAAAGAAAUAGUCUUGCGCUCAGCCAGGAAGUCUGUAAUCAUUUUAAGGGUA [A68G A82G A111G A116G], the self-cleavage was found to be 0.18.
On to GUUAACGGUCAUAGGCCAUGGAAACUAGGAGCACCAUUUCGCUGCCAGUGAAGAAAUGAACAAAGAAGGUCUGGGCCAGGCAGGCAUCAAAAGGAAUAGUCUUGCGCUCAACCAGAAGGUCUGUAAUCAUUUUAAGGGUA [A68G A69G A94G A118G], for which the self-cleavage turned out to be 0.97.
The figure for GUUAACGGUCAUAGGCCAUGGAAACUAGGAGCACCAUUUCGCUGCCAGUGAAGAAAUGAACAAAGAAGGUCUGGGCCAGGCAGGCAUCAAGAGAAAUAGUCUUGCGCUCAACCAGAAAGUCUGUAAUCAUUUUAAGGGUA [A68G A69G A91G] is 0.52; for GUUAACGGUCAUAGGCCAUGGAAACUAGGAGCACCAUUUCGCUGCCAGUGAAGAAAUGAACAAAGAACAUCUGGGCCAGGCGGGCGUCAAAAGAAAUAGUCUUGCGCUCAACCAGAAAGUCUGUAAUCAUUUUAAGGGUA [A68C A82G A86G] it is 0.16.
The value for GUUAACGGUCAUAGGCCAUGGAAACUAGGAGCACCAUUUCGCUGCCAGUGAAGAAAUGAACAAAGAGAAUCUGGGCCAGGCAGGCAUCAAAAGAAAUGGUCUUGCGCUCAACCAGAAAGUCUGUAAUCAUUUUAGGGGUA [A67G A98G A135G] was 0.65.
The figure for GUUAACGGUCAUAGGCCAUGGAAACUAGGAGCACCAUUUCGCUGCCAGUGAAGAAAUGAACAAAGAGAAUCUGGGCCAGGCAGGCAUCAAAAGAAAUAGUCUUGCGCUCAACCAGGAAGCCUGUAAUCAUUUUAAGGGUA [A67G A116G U120C] is 0.29; for GUUAACGGUCAUAGGCCAUGGAAACUAGGAGCACCAUUUCGCUGCCAGUGAAGAAAUGAACAAAGAUAAUCUGGGCCAGGCAGGCAUCACAAGAAAUAGUCUCGCGCUCAACCAGAAAGACUGUAAUCAUGUUAAGGGUA [A67U A90C U103C U120A U131G] it is 0.47.
GUUAACGGUCAUAGGCCAUGGAAACUAGGAGCACCAUUUCGCUGCCAGUGAAGAAAUGAACAAAGAAGAUCUGGGCCAGGCGGGCAUCAAAGGAAAUAGUCUUGCGCUCAACCAGAAAGUCUGUUAUCAUUUUAAGGGUA [A68G A82G A92G A125U]: the self-cleavage came to 0.3.
Regarding GUUAACGGUCAUAGGCCAUGGAAACUAGGAGCACCAUUUCGCUGCCAGUGAAGAAAUGAACAAAGAGAAUCUGGGCCAGGCAGGCAUCAAAAGAGAUGGUCUUGCGCUCAACCAGAAUGUCUGUAAUCAUUUUAAGGGUA [A67G A95G A98G A118U], the self-cleavage was found to be 1.94.
Regarding GUUAACGGUCAUAGGCCAUGGAAACUAGGAGCACCAUUUCGCUGCCAGUGAAGAAAUGAACAAAGAGAAUCUGGGCCAGGCAGGCAUCAAAAGAAGUAGCCUUGCGCUCAACCAGAAAGUCUGUAAUCAUUUUAAGGGUA [A67G A96G U100C], the self-cleavage came to 2.31.
The figure for GUUAACGGUCAUAGGCCAUGGAAACUAGGAGCACCAUUUCGCUGCCAGUGAAGAAAUGAACAAAGAACUUCUGGGCCAGGCCGGCAUCAAAAGAAAUAGUCUUGCGCCCAACCAGAAAGUCUGUAAUCAUUUUAAGGGUA [A68C A69U A82C U108C] is 0.03; for GUUAACGGUCAUAGGCCAUGGAAACUAGGAGCACCAUUUCGCUGCCAGUGAAGAAAUGAACAAAGAAGAUCUGGGCCAGGCAGGCAUCUAAAGAAAUAGUCUUGCGCUCAACCAGAAAGUCUGUAGUCAUUUUAAGGGUA [A68G A89U A126G] it is 1.07.
The figure for GUUAACGGUCAUAGGCCAUGGAAACUAGGAGCACCAUUUCGCUGCCAGUGAAGAAAUGAACAAAGAGAAUCUGGGCCAGGCAGGCAUCAAAAGAAAUAGUCUUGCGCUCAGCCAGAAAGUCUGUAAUCAUUUUAAGGGUG [A67G A111G A140G] is 0.02; for GUUAACGGUCAUAGGCCAUGGAAACUAGGAGCACCAUUUCGCUGCCAGUGAAGAAAUGAACAAAGAGAAUCUGGGCCAGGCAGGCAUCAAAAGAAAUAGUCUUGCGCUCAGCCAGAAAGUCUGUAAUCGUUUUAAGGGUA [A67G A111G A129G] it is 0.
For GUUAACGGUCAUAGGCCAUGGAAACUAGGAGCACCAUUUCGCUGCCAGUGAAGAAAUGAACAAAGAGAAUCUGGGCCAGGCAGGCAUCAAAAGAAAUAGUCUUGCGCUCAACCUGAGAGUCUGUAAUCAUUUUAAGGGUA [A67G A114U A117G], the self-cleavage stood at 0.02.
The value for GUUAACGGUCAUAGGCCAUGGAAACUAGGAGCACCAUUUCGCUGCCAGUGAAGAAAUGAACAAAGAAGAUCUGGGCCAGGCGGGCAUCAAAAGAAAUAGUCUUGCGCUCAACCAGAAAGUCUGUAAUCAUUAUAAGGGUA [A68G A82G U132A] was 0.38; that for GUUAACGGUCAUAGGCCAUGGAAACUAGGAGCACCAUUUCGCUGCCAGUGAAGAAAUGAACAAAGAAGAUCUGGGCCAGGCAGGCGUCAAAAGAAAUAGUCUUGCGCUCAACCAGAAAGUCUGUAGUCAUUUUAAGGGUA [A68G A86G A126G] was 0.84; that for GUUAACGGUCAUAGGCCAUGGAAACUAGGAGCACCAUUUCGCUGCCAGUGAAGAAAUGAACAAAGAGAAUCCGGGCCAGGCAGGCAUCAAAAGAGGUAGUCUUGCGCUCAACCAGAAAGCCUGUAAUCAUUUUAAGGGUA [A67G U72C A95G A96G U120C] was 0.11.
The value for GUUAACGGUCAUAGGCCAUGGAAACUAGGAGCACCAUUUCGCUGCCAGUGAAGAAAUGAACAAAGAGAAUCAGGGCCAGGCAGGCAUCAGAAGAAGUGGUCUUGCGCUCAACCAGAAAGUCUGUAAUCAUUUUAAGGGUA [A67G U72A A90G A96G A98G] was 0.1; that for GUUAACGGUCAUAGGCCAUGGAAACUAGGAGCACCAUUUCGCUGCCAGUGAAGAAAUGAACAAAGAGAAUCUGGGCCAGGCAGGCACCAAAAGAAAUAGUCUUGCGCUCAACCAGAAAGCCUGUAAUCAUUUUAAGGGUA [A67G U87C U120C] was 0.73.
The figure for GUUAACGGUCAUAGGCCAUGGAAACUAGGAGCACCAUUUCGCUGCCAGUGAAGAAAUGAACAAAGAGAAUCUGGGCCAGGCAGGCAGCAAAAGAAAUAGUCUUGCGCUCAACCAGAAAGUCUGUAAUCAUUUUAAGGGUG [A67G U87G A140G] is 0.73.
Take GUUAACGGUCAUAGGCCAUGGAAACUAGGAGCACCAUUUCGCUGCCAGUGAAGAAAUGAACAAAGAGAAUCUGGGCCAGGCAGGCAUCAAAAGAGAUAGUCUUGCGCUCAACCAGAAAGUCUGUAAACAUUUUAAGGGUA [A67G A95G U127A]: the self-cleavage was found to be 2.65.
The value for GUUAACGGUCAUAGGCCAUGGAAACUAGGAGCACCAUUUCGCUGCCAGUGAAGAAAUGAACAAAGAGAAUCUGGGCCAGGCAGGCACCAAAAGAAAUAGUCUUGCGCUCAACCAGAAAGUCCGUAAUCGCUUUAAGGGUA [A67G U87C U122C A129G U130C] was 0.46; that for GUUAACGGUCAUAGGCCAUGGAAACUAGGAGCACCAUUUCGCUGCCAGUGAAGAAAUGAACAAAGAGAAUCUGGGCCAGGCAGGCAUCAAAAGAAAUAGUCUUGCGCUCAACCAGAACGCCUGUAAUCAUUUUAAGGGUA [A67G A118C U120C] was 0.44; that for GUUAACGGUCAUAGGCCAUGGAAACUAGGAGCACCAUUUCGCUGCCAGUGAAGAAAUGAACAAAGAAGAUCUGGGCCAGGCAGGCGACAAAAGAAAUAGUCUUGCGCUCAACCAGAAAGUCUGUAAUCAUUUUAAGGGUA [A68G A86G U87A] was 1.27.
The figure for GUUAACGGUCAUAGGCCAUGGAAACUAGGAGCACCAUUUCGCUGCCAGUGAAGAAAUGAACAAAGAACGUCUGGGCCAGGCAGGCAUCAAAAGAAAUAGUCUUGCGCUCAACCAGAAAGUCUGUAAUCAUUUUAGGGGUA [A68C A69G A135G] is 0.75.
Take GUUAACGGUCAUAGGCCAUGGAAACUAGGAGCACCAUUUCGCUGCCAGUGAAGAAAUGAACAAAGAUAAUCUGGGCCAGGCAGGCGUCAAAAGAAAUAGACUUGCGCUCAACCAGAAAGUCUGUAAUCGUUUUAAGGGUA [A67U A86G U100A A129G]: the self-cleavage was found to be 0.53.
The value for GUUAACGGUCAUAGGCCAUGGAAACUAGGAGCACCAUUUCGCUGCCAGUGAAGAAAUGAACAAAGAUAAUCUGGGCCGGGCAGGCAUUAAAAGAAAUAGUCUUGCGCUCAACCAGAAAGUCUGUAAUCAUUUUAAGGGUA [A67U A78G C88U] was 0.1; that for GUUAACGGUCAUAGGCCAUGGAAACUAGGAGCACCAUUUCGCUGCCAGUGAAGAAAUGAACAAAGAGAAUCUGGGCCAGGCAGGCAUCAAAAGAAAUAGUCUUGCGCUCAACCAGAGAGCCUGUAGUCAUUUUAAGGGUA [A67G A117G U120C A126G] was 0.48.
The value for GUUAACGGUCAUAGGCCAUGGAAACUAGGAGCACCAUUUCGCUGCCAGUGAAGAAAUGAACAAAGAGAAUCUGGGCCAGGCAGGCAUCAAAAGAAAUAGUCUUGCGCUCAACCAGAAGGUCUGUAGUCAUUUUAAGGGUA [A67G A118G A126G] was 0.58; that for GUUAACGGUCAUAGGCCAUGGAAACUAGGAGCACCAUUUCGCUGCCAGUGAAGAAAUGAACAAAGAGAAUCUGGGCAAGGCAGGCAUCAAAAGAAAUAGUCUUGCGCUCAACCAGAAAGUCCGUAAUCAUUUUAAGGGUA [A67G C77A U122C] was 0.71; that for GUUAACGGUCAUAGGCCAUGGAAACUAGGAGCACCAUUUCGCUGCCAGUGAAGAAAUGAACAAAGAGAAUCCGGGCCAGGCAGGCAUCAAAAGAAAACGUCUUGCGCUCAACCAGAAAGUCUGUAGUCAUUUUAAGGGUA [A67G U72C U97A A98C A126G] was 0.1.
Take GUUAACGGUCAUAGGCCAUGGAAACUAGGAGCACCAUUUCGCUGCCAGUGAAGAAAUGAACAAAGAGAAUCUGGGCCAGGCAGGCAUCAAAAGAAAUAGUCUUGCGCUCAACCAGAAAGGCUGUGAUCAUUUUAAGGGUA [A67G U120G A125G]: the self-cleavage is 1.31.
The figure for GUUAACGGUCAUAGGCCAUGGAAACUAGGAGCACCAUUUCGCUGCCAGUGAAGAAAUGAACAAAGAGAAUCUGGGCCAGGCAGGCAUCAAAAGAAAUAGUCUUGCGCUCAACCAGAAAGCCUGUAAUCAUCUUAAGGGUA [A67G U120C U131C] is 1.05; for GUUAACGGUCAUAGGCCAUGGAAACUAGGAGCACCAUUUCGCUGCCAGUGAAGAAAUGAACAAAGAAGAUCUGGGCCGGGCAGGCACCAAAAGAAAUAGUCUUGCGCUCAACCAGAAAGUCUGUAAUCACUUUAAGGGUA [A68G A78G U87C U130C] it is 0.22.
